Laboratory results as given in the supplement of paper PMC12217912.
This is one part of the list. The full chains were built here from the parent and the listed change. Values near 0.05 are background.

B1: TEV protease; numbered along this chain (parent)
chain: MGESLFKGPRDYNPISSSICHLTNESDGHTTSLYGIGFGPFIITNKHLFRRNNGTLVVQSLHGVFKVKDTTTLQQHLVDGRDMIIIRMPKDFPPFPQKLKFREPQREERICLVTTNFQTKSMSSMVSDTSCTFPSGDGIFWKHWIQTKDGQCGSPLVSTRDGFIVGIHSASNFTNTNNYFTSVPKNFMELLTNQEAQQWVSGWRLNADSVLWGGHKVFMVKPEEPFQPVKEATQL

Variants of: B1
Experiment: raw area under fraction-flipped curve 0-4 h after induction (AUC4h, not background-subtracted), DNA-recorder readout of cleavage of the substrate (dimensionless); higher = more cleavage of the substrate by the protease variant
Conditions: temperature: 34 °C; time window: 0-4 h after rhamnose induction
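Also: Bxb1 expression induced with 0.2% (w/v) L-rhamnose at OD600 near 0.5, cultures sampled hourly, flipped fraction per protease–substrate barcode pair counted by paired-end Illumina sequencing.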

Row | Variant | area with substrate EALYFQS | area with substrate ECLYFQS | area with substrate EDLYFQS | area with substrate EELYFQS | area with substrate EGLYFQS | area with substrate EHLYFQS | area with substrate EKLYFQS | area with substrate ELLYFQS | area with substrate EMLYFQS | area with substrate EPLYFQS | area with substrate EQLYFQS | area with substrate ERLYFQS | area with substrate ESLYFQS | area with substrate ETLYFQS | area with substrate EVLYFQS | area with substrate EWLYFQS | area with substrate EYLYFQS | area with substrate EILYFQS | area with substrate EFLYFQS
1 | R102H | 0.0505 | 0.0662 | 0.0652 | 0.0664 | 0.0561 | 0.0561 | 0.0559 | 0.0531 | 0.0509 | 0.0558 | 0.062 | 0.0492 | 0.0615 | 0.0594 | 0.0599 | 0.063 | 0.0459 |  | 
2 | S121H | 0.115 | 0.114 | 0.129 |  | 0.117 | 0.103 | 0.126 | 0.132 | 0.118 | 0.115 | 0.118 | 0.113 | 0.12 | 0.12 |  | 0.0863 | 0.119 | 0.116 | 
3 | S121M | 0.117 | 0.102 | 0.117 | 0.141 | 0.0736 | 0.0899 |  | 0.0855 |  | 0.0991 | 0.119 |  | 0.109 | 0.0153 | 0.088 | 0.095 | 0.102 | 0.0776 | 0.112
4 | S121W | 0.139 | 0.0993 | 0.156 | 0.125 | 0.0878 | 0.0988 | 0.134 | 0.0965 | 0.133 | 0.113 | 0.13 | 0.0985 | 0.115 | 0.12 | 0.108 | 0.0994 |  | 0.0922 | 
5 | V126Y | 0.114 | 0.105 | 0.11 |  | 0.112 |  |  | 0.0887 | 0.124 | 0.101 | 0.128 | 0.11 | 0.0984 |  | 0.0905 | 0.0802 |  | 0.0866 | 0.0869
6 | V126A | 0.113 | 0.0919 | 0.152 | 0.113 | 0.0952 | 0.069 | 0.103 |  | 0.12 | 0.131 | 0.125 | 0.112 | 0.106 | 0.166 | 0.0941 |  |  | 0.1 | 
7 | Q105R | 0.114 | 0.141 | 0.102 | 0.114 |  | 0.124 | 0.142 |  | 0.113 |  | 0.114 | 0.128 | 0.1 | 0.118 | 0.0802 | 0.104 | 0.174 | 0.0913 | 
8 | Q105D | 0.115 | 0.0998 | 0.125 | 0.128 | 0.0915 |  | 0.135 | 0.0953 | 0.121 | 0.12 | 0.12 | 0.125 | 0.106 | 0.178 | 0.0974 | 0.0933 |  | 0.0964 | 0.123
9 | S127G | 0.135 | 0.102 | 0.128 | 0.132 | 0.108 | 0.0063 | 0.132 | 0.0935 | 0.138 | 0.13 | 0.126 |  | 0.105 |  | 0.137 | 0.12 |  | 0.0749 | 
10 | S127E | 0.0794 | 0.111 | 0.124 |  | 0.0871 | 0.0915 | 0.115 | 0.0688 | 0.101 | 0.105 | 0.109 | 0.0874 | 0.0933 |  | 0.0956 |  | 0.0838 | 0.0951 | 
11 | S127K | 0.141 | 0.115 | 0.187 | 0.154 |  |  | 0.134 | 0.0909 | 0.133 |  | 0.164 |  | 0.183 |  | 0.0939 |  |  | 0.0953 | 
12 | E107Y | 0.137 | 0.12 | 0.129 | 0.13 | 0.088 | 0.101 | 0.121 | 0.0899 |  | 0.14 | 0.137 |  | 0.0955 |  |  |  | 0.124 | 0.0865 | 
13 | I110T | 0.0844 | 0.0351 | 0.095 | 0.0935 | 0.0646 | 0.0718 |  | 0.0621 | 0.0774 | 0.102 |  | 0.0821 | 0.0708 | 0.0884 | 0.066 |  | 0.0685 | 0.0657 | 0.104
14 | I110G | 0.0553 | 0.0732 | 0.057 |  | 0.0454 |  |  |  | 0.0402 |  | 0.0579 | 0.0563 | 0.0485 | 0.0679 |  |  | 0.0585 | 0.05 | 0.0684
15 | I110D | 0.0501 | 0.0473 | 0.0484 | 0.0253 | 0.0505 |  | 0.0557 | 0.0583 |  |  | 0.0609 | 0.0587 | 0.0411 | 0.0522 | 0.0082 | 0.0749 |  | 0.0528 | 0.0497
16 | L99D | 0.123 | 0.0574 | 0.101 |  |  |  |  |  |  |  |  |  | 0.07 |  | 0.0619 | 0.0461 |  | 0.0668 | 0.0951
17 | P104G | 0.0524 | 0.0596 | 0.0845 | 0.0551 | 0.0517 | 0.0486 | 0.0469 | 0.0609 |  | 0.0399 | 0.0482 |  | 0.0552 | 0.057 | 0.0467 | 0.0507 | 0.0552 | 0.0476 | 
18 | F140G | 0.0499 | 0.0645 | 0.0534 | 0.0528 | 0.0639 |  | 0.0058 | 0.054 | 0.0521 | 0.074 | 0.061 | 0.0741 | 0.0596 | 0.0533 | 0.0621 | 0.0507 |  | 0.0572 | 0.045
19 | K142L | 0.132 | 0.104 | 0.137 |  | 0.116 | 0.116 | 0.104 |  | 0.114 |  | 0.124 | 0.124 | 0.0852 |  | 0.104 |  | 0.108 | 0.104 | 0.101
20 | K142I | 0.113 | 0.102 | 0.102 | 0.131 | 0.0755 |  | 0.0847 |  | 0.0944 |  | 0.143 | 0.105 | 0.135 |  | 0.119 |  | 0.089 | 0.0864 | 0.106
21 | S124R | 0.133 | 0.11 | 0.118 | 0.118 | 0.0954 | 0.124 |  | 0.103 |  |  | 0.14 | 0.115 | 0.117 | 0.104 | 0.0956 | 0.123 |  | 0.0966 | 0.108
22 | S124P | 0.167 | 0.111 | 0.138 | 0.107 | 0.0838 |  | 0.0899 |  |  | 0.0959 | 0.113 | 0.114 |  | 0.0927 |  |  |  | 0.103 | 
23 | S124V | 0.112 | 0.0622 | 0.0981 | 0.132 | 0.0925 | 0.0966 | 0.0943 | 0.0892 | 0.11 | 0.111 | 0.0968 |  | 0.0967 | 0.105 | 0.0763 | 0.122 | 0.0955 | 0.0557 | 
24 | Q146C | 0.133 | 0.138 | 0.174 | 0.0931 |  | 0.126 | 0.158 | 0.113 | 0.143 | 0.144 | 0.177 |  | 0.177 | 0.165 | 0.0762 | 0.0902 |  | 0.113 | 0.117
